# Laboratory results from the supplement of paper PMC10185492.
# The list shows a part of the results. Read counts after selection give these values, which scatter widely.
# Tested on: SARS-CoV-2 3CLpro (nsp5)
# Assay: substrate phage enrichment score (protease-eluted vs HEPES control, +1 offset) (ratio); higher = better cleaved substrate
# Settings: selection round: 4; protease elution time: 15 min
# Method: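 Random heptapeptide substrate phage display (M13 pIII fusion, heptapeptide between an N-terminal biotinylated AviTag GLNDIFEAQKIEWHE and pIII; phages immobilised on streptavidin) eluted by cleavage with 50 nM protease in 20 mM HEPES at 37 °C. Selected phages were NGS sequenced, and the enrichment score is (reads in protease sample + 1)/(reads in HEPES blank-selection control + 1).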
row,Substance,substrate phage enrichment score
1,EARPLQG,> 21
2,KKSASLN,> 159
3,DSKLYFQ,12.5
4,RSKPHSP,1
5,TTSTGLR,> 35
6,FTTNSAH,1.69
7,NKEDNQG,> 21
8,NATSVLN,2
9,QKGYRPG,> 33
10,LTGVNGA,0.293
11,QGVYLQG,> 26
12,NPPQWQY,> 21
13,WPEHVPN,> 29
14,NQCSHMT,11.5
15,DASTRLQ,76.5
16,ENDKRTT,> 26
17,QQGSFTC,2.67
18,SGAPGCR,15.5
19,YADVNAW,> 28
20,RTRSCLQ,> 230
21,CPLRPVQ,2.57
22,LQSHDTR,2.36
23,SWEEKCG,1.41
24,ACPTGVH,> 26

row,Substance,substrate phage enrichment score
1,PSSHQKS,> 67
2,AHTETGD,> 51
3,SCTPLTR,1.3
4,NESNVKI,1.65
5,LREVQAK,1.21
6,IKSPNCE,0.0571
7,HRERLSS,0.529
8,TDAAHHH,0.432
9,LRVETHD,4.46
10,LNRTWEP,> 22
11,PQVCEPN,1.4
12,VKTLYGK,> 26
13,SNRSVLQ,13.2
14,ACRNRPP,> 22
15,YERLTGT,> 22
16,SYEGETK,2
17,ALNSSGR,> 23
18,GPVNLQS,> 83
19,ASALGCS,8.62
20,AKNSLWQ,> 43
21,CTCPETR,0.857
22,SRKGGDH,17
23,PSKQCPR,> 43
24,YFGSVNQ,> 27

row,Substance,substrate phage enrichment score
1,NGLPTCP,0.7
2,PSSTTLQ,> 648
3,SPVTLQS,> 44
4,TTYEVPG,28.5
5,CWDGQGS,4.4
6,GGNPQCP,3.62
7,SPRAICQ,> 597
8,ASSGYPT,3.46
9,AWGDTSR,1.44
10,REPVLCQ,> 28
11,FMPLCQA,13
12,ERSCSTH,> 21
13,PVSHAPQ,> 50
14,SAAARHH,1
15,RVPVPIG,> 40
16,RDNNVKY,0.514
17,SATAHHH,0.438
18,NEIRSTR,> 22
19,ISSQPHN,> 21
20,LESSGTQ,2.62
21,AHTEWRD,1.36
22,RCGLNQM,> 36
23,LLIRSCR,178
24,RVELLEP,2.71

row,Substance,substrate phage enrichment score
1,ECCLQGG,> 33
2,ASAPKLP,3.8
3,LYFQCGS,1.42
4,HTPCRSS,0.647
5,AYLQGGS,1
6,PHKYDDN,0.867
7,VNLQTSH,> 25
8,PAAQDTR,6.5
9,RRSPNGW,5
10,ATGCSTM,> 28
11,ANMPSKR,> 45
12,AQSSNRD,3.4
13,ESDHQST,0.238
14,CAAAHQQ,1.21
15,HIYKLNS,0.714
16,VVGLGVV,8.67
17,AQLHNTQ,> 23
18,VTSEKHT,> 27
19,PRTLYFQ,> 24
20,PALQSST,> 414
21,DPAAHHH,0.48
22,GRPLFAT,3.14
23,AGRHCKG,29
24,REVLVTN,1.25

row,Substance,substrate phage enrichment score
1,SNSCGSA,14.6
2,EKEHFSV,2.14
3,LRSAEPW,0.177
4,QSNQRPG,1.2
5,HLCEGLF,1.07
6,TGLPPSV,2.71
7,TEINHIR,> 27
8,QRVPHLK,2.13
9,ASNKCVG,2.14
10,TAHHHHH,1.3
11,CRRFRRI,95
12,VESEVRP,2.67
13,ESTFPVR,2.67
14,NPSLNNC,> 28
15,AQPVTSS,> 34
16,NTTVRPT,5.6
17,LVHQLPD,2.08
18,AAQIHTR,> 35
19,ATWGKSP,> 25
20,LCIPNLQ,24.7
21,WHSTDKA,0.5
22,GNSWRVQ,0.0682
23,LSNYEDW,1.07
24,PKGTWPG,> 26

row,Substance,substrate phage enrichment score
1,FYGPKTV,0.591
2,FNPQGTG,1.73
3,QKYVLPT,5.86
4,PSAAAHH,0.827
5,SGRVKMT,2.57
6,ANNVCAE,0.0833
7,SLAAHHH,4.62
8,HNCGARQ,0.435
9,TEHHSTE,1.44
10,YGSDGAK,> 33
11,PNELQSY,> 26
12,SLEASFR,0.471
13,CLQGVEK,15
14,RDMNPKS,> 34
15,RVWKPHP,4.83
16,YMMFDAT,> 31
17,REPNFQG,3.88
18,ETQAPTS,0.706
19,FRDIQLR,> 34
20,SSRINMT,0.5
21,QKRTTLQ,64
22,VHRSGPT,> 41
23,SMRGEYP,> 44
24,HGRTPSD,0.0962

row,Substance,substrate phage enrichment score
1,YECTSKK,6.8
2,CAEGVAK,0.158
3,LICWCHR,4.44
4,ATDLPSR,0.143
5,DPGRCGG,0.833
6,RSSSSED,0.0147
7,VACLQAS,> 29
8,PKGDISR,1.69
9,KFGPRKQ,> 28
10,SKQTAGT,1.89
11,GTYQGPQ,0.0667
12,IGLTPSR,0.647
13,THTRGTS,> 34
14,NSHRTWF,0.111
15,HRTTPLQ,2.3
16,NAAAAHH,17
17,AGNKVHW,> 22
18,HTLVAKV,1.05
19,CAAAHNH,0.6
20,RADNDSE,> 28
21,RESRLQS,> 142
22,RHEATSD,2.65
23,LGPHIII,0.857
24,SRTPDEG,5

row,Substance,substrate phage enrichment score
1,SRTGEYH,> 27
2,VLTGMGG,6.75
3,PAILQSG,> 33
4,SAAPQQQ,2.22
5,ICIYDER,2.15
6,KCIHVPK,> 32
7,KHQCTLI,> 29
8,ATGAAAH,> 22
9,APVIHYD,7.33
10,YEDWIRG,0.765
11,STYNNMQ,5.62
12,YTEDKLS,0.875
13,TWAAHHH,5.56
14,NRPEHCR,> 21
15,PIGHMTR,14
16,PGQNEWP,4.8
17,YQKHGSR,> 49
18,SPTDDLW,> 42
19,QEPVSLQ,> 31
20,FNHDLNR,0.0408
21,SHEETHK,0.95
22,AELQCNV,> 23
23,PSSRPTS,4.47
24,QHGQNKA,0.769

row,Substance,substrate phage enrichment score
1,AIPEPER,> 85
2,KHYAKPV,4.36
3,TGIGATS,11
4,STSKTLP,3.14
5,ARSSIPL,1.05
6,VSFPELS,2.69
7,ADSRKRP,> 52
8,RGVLQNH,1.53
9,RSYPKNP,> 75
10,PPKCPHR,> 35
11,SPGCRLM,19.5
12,ACDQRPD,> 22
13,WSTNPRA,0.353
14,QPHEHPH,0.25
15,RPVVPEK,2.36
16,GGNTNLM,> 21
17,WNQGPLR,10.5
18,TTTAHHH,2.6
19,TQNITLQ,> 40
20,RFVEWRP,1.82
21,THWTGCW,1.8
22,TRIPQPC,0.667
23,TAEGLRM,> 28
24,PHACPSL,3.5

row,Substance,substrate phage enrichment score
1,PGKMCKG,7.38
2,TESVRRP,7
3,RCVLING,> 31
4,PPAAHHH,1.01
5,DLTDTPV,3
6,PASAHHH,31.2
7,RNFRSER,7.17
8,ECWNVGS,1.5
9,IRPSDAE,6.55
10,TQGVNLC,> 31
11,LYFHGGS,3.22
12,MRCSADA,0.643
13,DVRNLLS,> 23
14,SQANEMQ,> 27
15,AMKTGAF,3.5
16,THFSDRQ,0.733
17,SPVREQD,7.33
18,HPPGMIH,> 35
